For 31 molecules, activity change, negative = inhibition results are on record in PubChem BioAssay AID1745853 (National Center for Advancing Translational Sciences (NCATS), 2022).

The list shows a part of the results. These are further read-outs of the screen, such as a control signal, another cell line or another target. No call is given for them.

What all share (assay): Primary Screen for Target Class Profiling of Small Molecule Inhibitors of Methyltransferases
The target in test [1] is Glycine N-methyltransferase (Homo sapiens) (UniProt Q14749). The note with it: purified enzyme, MTase-Glo SAH luminescence; measured here: GNMT inhibition; at 40 µM; stronger effect = lower value. A digest of the protocol:
(§1)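 Each enzyme was reacted with SAM and its substrate, with compounds tested once at 40 uM; SAH formed was read by MTase-Glo luminescence.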

The target in test [2] is Guanidinoacetate N-methyltransferase (Homo sapiens) (UniProt Q14353). The note with it: purified enzyme, MTase-Glo SAH luminescence; measured here: GAMT inhibition; at 40 µM; stronger effect = lower value. The method in brief:
as §1

In test [3] the target is Histamine N-methyltransferase (Homo sapiens) (UniProt P50135). The note with it: purified enzyme, MTase-Glo SAH luminescence; measured here: HNMT inhibition; at 40 µM; stronger effect = lower value. A digest of the protocol: as §1
The target in test [4] is Nicotinamide N-methyltransferase (Homo sapiens) (UniProt P40261). The note with it: purified enzyme, MTase-Glo SAH luminescence; measured here: NNMT inhibition; at 40 µM; stronger effect = lower value. The method in brief: as §1
In test [5] the target is Phenylethanolamine N-methyltransferase (Homo sapiens) (UniProt P11086). The note with it: purified enzyme, MTase-Glo SAH luminescence; measured here: PNMT inhibition; at 40 µM; stronger effect = lower value. The method in brief:
as §1
% is set by controls: 0 for no effect and ±100 for the full control effect.

Regarding `Cn1cc(-c2ccncc2)c(-c2ccc(OCc3ccc4ccccc4n3)cc2)n1`, the activity change, negative = inhibition in test [1] is -27.8%; in test [2], -10.8%; in test [3], -13.8%; in test [4] it was -48.4%; in test [5], -13.2%.
For `CN(CCc1ccccn1)[C@@H]1[C@H](O)[C@H](CO)O[C@@H]1CNC(=O)c1ccc(C(F)(F)F)cc1`, in that order: -4.41%, -7.61%, -6.59%, -5.8% and -3.79%.
For `COC(=O)c1ccc(C2Nc3c(C)cc(C)cc3C3C=CCC32)cc1` (configuration not stated), in that order: -9.42%, -5.27%, -10.4%, -20.7% and -13.6%.
For `C=CCNC(=O)N[C@H]1[C@H](O)[C@@H](N2CCC(Cc3ccccc3)CC2)[C@@H]2OC[C@H]1O2`, in that order: -3.79%, -4.87%, -4.75%, -9.09% and -5.93%.
For `CN1[C@@H]2CC[C@H]1CC(OC(c1ccccc1)c1ccccc1)C2` (some centres not stated), the activity change, negative = inhibition in test [1] was 6.92%; in test [2] it was 9%; in test [3] it was -27.8%; in test [4], -14.4%; in test [5], 5.83%.
For `CCN1CCC(n2cc(CNc3cc(Cl)c4ncc(C#N)c(Nc5ccc(F)c(Cl)c5)c4c3)nn2)CC1`, in that order: -87.6%, -86.3%, -93.9%, -93.1% and -94.6%.
For `CC(C)CNC(=O)C1CC(c2ccccc2F)=NO1` (configuration not stated), in that order: -0.807%, 0.772%, 1.88%, -1.89% and 2.38%.
On the same counts, the results for `Cc1ccc(NC(=O)N2C[C@@H](F)C[C@H]2C(=O)N2CCCCC2)cc1F` are -5.39%, -0.679%, 1.52%, -4.72% and -0.265%.
Regarding `CCNC(=O)N1CCC(Cc2ccc(C(=O)O)cc2)CC1`, the activity change, negative = inhibition is -3.03% in test [1]; -0.183% in test [2]; 1.04% in test [3]; -0.556% in test [4]; -5.08% in test [5].
On the same counts, the results for `CC(C)CN1CCN(C(=O)c2ccc3c(c2)N(S(C)(=O)=O)CC3)CC1` are -0.906%, -0.785%, -7.07%, -4.8% and -0.477%.
For `CN(C)C[C@@H]1CN(c2ccncn2)C[C@H]1NC(=O)Cc1cccs1`, in that order: -3.64%, -3.07%, 0.124%, -6.28% and -10.2%.
For `O=C(O)c1ccc2c(c1)C1C=CCC1C(c1cccc(F)c1)N2` (configuration not stated), the activity change, negative = inhibition in test [1] is -47.9%; in test [2], -7.81%; in test [3] it was -0.174%; in test [4] it was 0.272%; in test [5], -17.8%.
On the same counts, the results for `CCCn1c(C)cnc1C1CCN(S(=O)(=O)c2cn(C)cn2)C1` (configuration not stated) are -0.563%, 1.5%, 0.311%, -0.611% and 2.09%.
On the same counts, the results for `Cc1noc(-c2ccc(C(C)(C)C)cc2)c1C(=O)NCCOc1ccccc1` are -8.66%, -7%, -3.46%, -17.3% and -8.18%.
As for `O=C(/C=C/c1cccnc1)c1ccncc1`, the activity change, negative = inhibition in test [2] is 3.31%; in test [4] it was -17.3%; in test [5], -7.91%.
For the molecule `CCc1nc2c(=O)n(CC(=O)NC(C)c3ccc(F)cc3)nc(C)c2s1` (configuration not stated), the activity change, negative = inhibition in test [1] is -2.86%; in test [2] it was -3.22%; in test [3], -1.2%; in test [4] it was -4.54%; in test [5], -5.44%.
On the same counts, the results for `CSc1cccc(NC(=O)N2CCn3cccc3C2C(C)C)c1` (configuration not stated) are 1.6%, 0%, -0.832%, -6.25% and 0.971%.
Take `Cn1cc(C2=C(c3c4n(c5ccccc35)CCC(CN)C4)C(=O)NC2=O)c2ccccc21` (configuration not stated): the activity change, negative = inhibition in test [1] is -24.5%; in test [3], -10.5%; in test [4], -7.62%; in test [5], 28.7%.
`CC1(C)CCC(C)(C)c2cc(C#Cc3ccc(C(=O)O)cc3)ccc21`: the activity change, negative = inhibition in test [1] was -35.7%; in test [2], 1.73%; in test [3], -10.6%; in test [4], -61.3%; in test [5] it was -2.76%.
As for `CC1CCC(NC(=O)C2(C)Cn3c(cc4occc43)C(=O)N2Cc2ccccc2Br)CC1` (configuration not stated), the activity change, negative = inhibition in test [1] is -0.873%; in test [2], 0%; in test [3], 4.2%; in test [4] it was 5.12%; in test [5], 3.59%.
`Cc1noc(C)c1C(=O)N1CCC2(CC1)C(=O)NCN2C(=O)Cc1ccccc1`: the activity change, negative = inhibition in test [1] is -1.68%; in test [2], -4.04%; in test [3] it was -2.12%; in test [4], 1.3%; in test [5] it was 1.09%.
For `NC(Cc1c[nH]c2ccccc12)C(=O)O` (configuration not stated), in that order: -5.92%, 3.11%, -5.38%, -0.971% and -3.64%.
For `Cc1ccc2nc(CN(C)C(=O)C3CCC(=O)N(C4CCCCCC4)C3)[nH]c2c1` (configuration not stated), in that order: -3.66%, -6.44%, -1.42%, -15.6% and -50.4%.
Consider `c1ccc(-n2cncn2)c(Cn2ccnc2-c2cc3n(n2)CCCNC3)c1`, for which the activity change, negative = inhibition in test [1] was -0.654%; in test [2], 1.32%; in test [3], 0.547%; in test [4] it was -0.561%; in test [5], 1.3%.
For the molecule `CCC1c2ccc(C)n2CCN1C(=O)Nc1ccc(Br)cc1` (configuration not stated), the activity change, negative = inhibition in test [1] is -1.86%; in test [2] it was -19.7%; in test [3], -1.06%; in test [4], -6.79%; in test [5], -6.37%.
On to `O=c1[nH]c2ccc(S(=O)(=O)N3CCN(c4ccc(F)cc4)CC3)cc2[nH]1`, for which the activity change, negative = inhibition in test [1] was 11.9%; in test [2], 2.83%; in test [3] it was 12.2%; in test [4], -1.21%; in test [5], 6.47%.
For `CCCCN1C(=O)c2cc(C(=O)N3CCN(c4ccccn4)CC3)nn2CC1(C)C(=O)NC1CCCC1` (configuration not stated), in that order: 1.51%, 3%, 1.17%, -0.488% and -0.646%.
With `CCN1C(=O)c2cc(C(=O)Nc3ccc(F)cc3)nn2CC1(C)C(=O)NC1CCCC1` (configuration not stated), the activity change, negative = inhibition in test [1] was 0.215%; in test [2] it was -0.868%; in test [3], -5.48%; in test [4], 1.51%; in test [5] it was 0.603%.
On the same counts, the results for `COc1ccc(C)cc1NC(=O)Cn1c(=O)c2ccc(Cl)cc2n2nncc12` are -1.45%, 0.254%, 7.75%, -1.26% and 1.78%.
For `Cc1ccc(NC(=O)CCc2nnc3n(CC(C)C)c(=O)c4ccccc4n23)cc1C`, in that order: 5.08%, 0%, 7.45%, -9.73% and -4.03%.
For `CCCNC(=O)N1CC[C@@H]2[C@H]1C(=O)N(c1cccc(F)c1)C(=O)N2Cc1cccs1`, the activity change, negative = inhibition in test [1] is -5.11%; in test [2], -10.6%; in test [3], -5.48%; in test [4] it was -9.4%; in test [5], -7.73%.
